The values that follow come from PubChem BioAssay AID463173 (ICCB-Longwood Screening Facility, Harvard Medical School, 2010).

Structures are written as SMILES. Out of some 52,000 compounds screened, about 4,300 (8.3%) were called active. Rule as the data show it: active = survival mostly below about 52% (no sharp cut-off); inactive = mostly above about 56%. Some of the results follow.

The experiment has as its system DeltatarO mutant. In words: S. aureus survival, RN4220 and DeltatarO strains – OD600, teichoic acid synthesis inhibitors, primary screen (AID 463173). Particulars: S. aureus RN4220 wild type/DeltatarO growth, OD600, 18 h, hits give low values, screened at 18.75 µg/mL (by protocol).
Turning to `Cc1cc(C)c(S(=O)(=O)NCCc2cc3c(C)ccc(C)c3[nH]c2=O)c(C)c1`, the survival is inactive: 80%. As for `CCCC(=O)NCCc1nc2ccccc2n1Cc1c(F)cccc1Cl`, the figure is inactive: 69%; as for `Cc1ccc(C)c(-n2nnc(-c3nc(-c4ccc(Cl)cc4)no3)c2N)c1`, inactive: 88%. As for `COc1ccc(F)cc1S(=O)(=O)NCCc1csc(-c2ccc(Cl)cc2)n1`, the figure is inactive: 89%. As for `CCOc1ccc(-c2cn(-c3ccc(OC)cc3)c(SCC(=O)Nc3ccccc3Cl)n2)cc1`, the figure is inactive: 99%; as for `CCc1ccc(NC(=O)C2CCN(c3nnc(-n4c(C)ccc4C)s3)CC2)cc1`, inactive: 79%; as for `CC(=O)c1ccc(NC(=O)CSc2cn(CC(=O)N3CCCCC3)c3ccccc23)cc1`, inactive: 63%. Regarding `CC(C)(CN)C(O)C(=O)O` (stereo unspecified), the survival was inactive: 82%. As for `CCC(=O)Nc1sc2c(c1C(=O)Nc1ccc(OC)cc1)CCC(C(C)(C)C)C2` (stereo unspecified), the figure is active: 13%.

Take `CCN(C(=O)c1nn(-c2ccc(OC)c(Cl)c2)c(=O)c2c1c1ccccc1n2C)c1cc(OC)ccc1OC`: the survival was inactive: 82%.

Take `Cc1ccc(NC(=O)c2cccc(NC(=O)N3CCSc4ncccc43)c2)cc1Cl`: the survival was inactive: 88%. As for `COc1ccc(N2CCN(C(=O)Cn3ncc4c3-c3cc(C)ccc3OC4)CC2)cc1`, the figure is inactive: 122%.

`COc1ccc(-c2nc3sc(CCNC(=O)C(=O)Nc4cc(C)cc(C)c4)c(C)n3n2)cc1`: the survival is inactive: 97%. As for `COc1cc(OC)cc(C(=O)Nc2cc(-c3nc4ccccc4s3)ccc2OC)c1`, the figure is active: 42%; as for `Cc1ccc(C(=O)NCC(c2cccs2)S(=O)(=O)c2cccs2)cc1C` (stereo unspecified), inactive: 78%; as for `CCOc1ccc(NC(=O)CN(C)S(=O)(=O)c2ccc3c(c2)c(=O)n(C)c(=O)n3C)cc1`, inactive: 89%. As for `COc1ccc(NC(=O)c2sc3nc(C)c(C(=O)Nc4ccc(C)cc4C)c(-c4ccc(Cl)cc4)c3c2N)cc1`, the figure is inactive: 55%; as for `O=C(NCc1ccc2c(c1)CCN2C(=O)c1ccncc1)c1cccc(Cl)c1`, inactive: 75%.

For `COc1ccc(OC)c(NC(=O)CSC2=Nc3ccccc3C3=NC(CC(=O)NCc4ccco4)C(=O)N23)c1` (stereo unspecified), the survival is inactive: 99%.

Regarding `CC1C(=O)NN=C1C(=O)N/N=C\c1cccnc1` (stereo unspecified), the survival is inactive: 87%. As for `N#Cc1ccc(C(=O)Nc2ccc(Cl)c(-c3nc4cc(Cl)ccc4o3)c2)c(F)c1`, the figure is active: 28%; as for `Cc1oc(-c2ccccc2F)nc1CS(=O)(=O)CC(=O)N1CCN(c2cccc(C(F)(F)F)c2)CC1`, inactive: 78%.

With `COc1ccccc1-c1noc(-c2ccc(NCCc3ccccc3)c([N+](=O)[O-])c2)n1`, the survival was active: 37%. As for `CCS(=O)(=O)c1ncc(Cl)c(C(=O)N(Cc2ccccc2)Cc2ccco2)n1`, the figure is inactive: 52%; as for `O=S1(=O)CCC(c2ccccc2)C1` (stereo unspecified), inactive: 77%.

Consider `COc1cccc(CNC(=O)CSc2ncc(S(=O)(=O)c3ccc(C)c(Cl)c3)c(=O)[nH]2)c1`, for which the survival was inactive: 69%. As for `CCn1cc(C(=O)NCCc2ccc(OC)c(OC)c2)c(=O)c2cc(S(=O)(=O)N3CCc4ccccc4C3)ccc21`, the figure is inactive: 78%. Consider `COc1ccc(-c2nc(CN3CCC(C(=O)NCCN(CC(C)C)CC(C)C)CC3)c(C)o2)cc1OC`, for which the survival is inactive: 128%.

`COc1ccccc1C(=O)Nc1ccccc1-c1nnn(CC(=O)N2CCN(c3ccc(F)cc3)CC2)n1`: the survival was inactive: 83%. On to `CC(C)(C)C(=O)OCc1cc(=O)n2nc(C3CCCCC3)sc2n1`, for which the survival was inactive: 80%. As for `Cc1ccc(C)c(CN2C(=O)c3ccccc3Sc3ccc(C(=O)NC4CCCC4)cc32)c1`, the figure is inactive: 128%. As for `COc1ccc(NC(=O)c2c(C)oc3ccc(O)c(CN4CCCC(C)C4)c23)cc1Cl` (stereo unspecified), the figure is active: 52%. As for `Cc1ccc(-n2ncc(C(=O)N3CCc4ccccc4C3)c2C2CCN(C(=O)OC(C)(C)C)CC2)cc1C`, the figure is inactive: 76%.

In the case of `Cc1ccc(N2CCN(C(=O)CCc3c(C)nc4ncnn4c3C)CC2)c(C)c1`, the survival is inactive: 91%. As for `Cc1ccc(S(=O)(=O)c2cn(C)c3cc(N4CCCC4)c(F)cc3c2=O)c(C)c1`, the figure is inactive: 67%; as for `CCc1ccc(NC(=O)c2cnn(-c3c(C)cccc3C)c2C2CCNCC2)cc1`, inactive: 89%. As for `CCOc1cc(C(=O)Nc2c(NC)c3ccccc3oc2=O)cc(OCC)c1OCC`, the figure is inactive: 135%. On to `O=c1[nH][nH]c(=S)n2nc(-c3ccccc3)cc12`, for which the survival is inactive: 74%.

For the compound `CN(C1CCCCC1)C(c1ccc(F)cc1)c1nnnn1C1CCCCC1` (stereo unspecified), the survival is inactive: 83%. As for `Cc1ncc(CO)c2c1Oc1nc(-c3ccccc3F)nc(SCC(=O)N3CCCCC3)c1C2`, the figure is inactive: 67%; as for `COC(=O)c1cccc(S(=O)(=O)N2CCC(NC(=O)Nc3cccc(F)c3)CC2)c1`, inactive: 94%; as for `COc1ccc(NC(=O)CSc2nc3c(c(=O)[nH]2)CN(Cc2ccccc2)CC3)cc1Cl`, inactive: 73%. On to `CCc1ccc(NC(=O)Cn2c(=O)n(Cc3ccccc3)c(=O)c3oc4ccccc4c32)cc1`, for which the survival was inactive: 71%. As for `COC(=O)c1ccc(OC)c(CSc2nnc(COc3cc(C)cc(C)c3)o2)c1`, the figure is inactive: 94%; as for `O=C(NS(=O)(=O)c1ccc(N=NN2CCOCC2)cc1)C12CC3CC(CC(C3)C1)C2`, inactive: 92%. Take `COc1cccc2cc(-c3nc(Cl)c4c5c(sc4n3)CC(C)CC5)c(=O)oc12` (stereo unspecified): the survival is inactive: 68%. In the case of `O=C(NCCc1c[nH]c2ccccc12)Nc1ccccc1C(F)(F)F`, the survival was inactive: 86%.

Take `COC(=O)c1cc(NC(=O)Cn2ncc3c2-c2ccccc2OC3)cc(C(=O)OC)c1`: the survival was inactive: 72%. In the case of `CCN1CCCC1CN(Cc1cc2cc(OC)ccc2[nH]c1=O)C(=O)Nc1ccccc1` (stereo unspecified), the survival is inactive: 91%. As for `Cc1cccc(CS(=O)(=O)CC2Nc3ccc(C(=O)NCc4ccccc4Cl)cc3NC2=O)c1` (stereo unspecified), the figure is inactive: 77%.

Consider `COc1ccc2sc(N(Cc3cccnc3)C(=O)c3ccco3)nc2c1`, for which the survival is active: -2%. As for `CCc1cccc(C)c1NC(=O)Nc1csc2c1CCCC2`, the survival is inactive: 72%. As for `CCOC(=O)c1ccc(N2C(=O)c3[nH]nc(-c4ccc(OC)cc4)c3C2c2ccc(C)cc2)cc1` (stereo unspecified), the figure is inactive: 81%. As for `CCOCCCNC(=O)c1c(NC(=O)c2cc(=O)c3cc(C)c(C)cc3o2)sc2c1CCC2`, the figure is inactive: 113%; as for `CCOc1ccc(N2CC(c3nc4ccccc4n3CCC3CCCCC3)CC2=O)cc1` (stereo unspecified), active: 33%. As to `COc1ccc(CN2C(=O)N(c3ccc(F)cc3)C(=O)C2CC(=O)Nc2ccccc2)cc1` (stereo unspecified), the survival was inactive: 77%. As for `CC12COC3(C(=O)Nc4ccccc4)CC1CCC32C` (stereo unspecified), the figure is inactive: 100%.

On to `CCCNC(=O)C1CCN(c2cc(C)nc3c(-c4ccc(OC)c(OC)c4)c(C)nn23)CC1`, for which the survival is inactive: 82%. As for `Cc1ccc(CCNc2nc3ccccc3c3nc(-c4ccccc4)nn23)cc1`, the figure is active: 44%; as for `Cc1oc(-c2ccc(Cl)cc2)nc1CSc1nnc(C)n2c1cc1sccc12`, inactive: 89%.

As for `Cc1ccn2c(Nc3ccc4c(c3)OCO4)c(-c3ccco3)nc2c1`, the survival is inactive: 73%. As for `N#Cc1c(C(F)(F)F)cc(-c2cccs2)nc1SCC(=O)Nc1ccc(Cl)cc1`, the figure is inactive: 62%.

Consider `O=C(Cn1c(=O)n(Cc2ccc(F)cc2)c(=O)c2sc3ccccc3c21)NCc1ccccc1Cl`, for which the survival was inactive: 95%. As for `COc1ccc(N2CCN(C(CNS(=O)(=O)c3c(C)cc(C)cc3C)c3ccco3)CC2)cc1` (stereo unspecified), the figure is inactive: 80%; as for `Cc1ccc(-n2c(=O)c3c(C)c(C)sc3n(CC(=O)c3ccc(Cl)cc3)c2=O)cc1C`, inactive: 53%. Turning to `Cc1ccc2c(c1)N(CC(=O)N1CCCc3ccccc31)C(=O)CO2`, the survival was inactive: 106%.

As to `CCCn1c2ccccc2c2cnn(CC(=O)N(CCCOC(C)C)Cc3ccco3)c(=O)c21`, the survival is inactive: 87%. Turning to `COc1cc(C(=O)Nc2ccc(OCc3cc(=O)n4ccc(C)cc4n3)cc2)cc(OC)c1OC`, the survival was active: 8%. As for `Cc1cc(NC(=O)CCC(=O)N(Cc2ccccc2)C2(C(=O)NC3CCCCC3)CCCC2)no1`, the figure is inactive: 95%; as for `CCOC1=CC2=C(CC(C)(C)CC2=O)OC1N(C)C` (stereo unspecified), inactive: 97%.

For the compound `CC(C)(C)OC(=O)N1CCC(c2c(C(=O)NCCN3CCOCC3)cnn2-c2ccccc2)CC1`, the survival was inactive: 74%. As for `COc1ccc2oc(-c3ccc(C)c(NC(=O)c4ccc(N5CCCCC5)c([N+](=O)[O-])c4)c3)nc2c1`, the figure is inactive: 79%; as for `COc1ccc(CNC(=O)CN2CCSc3ccccc32)c(OC)c1`, inactive: 120%. As for `CCN(CC)C(=O)Cn1c(SCC(=O)Nc2ccc(C)c(C)c2)nc2ccccc21`, the figure is inactive: 128%; as for `COc1ccccc1NC(=O)C1=C(C)Nc2ncnn2C1c1ccc[nH]1` (stereo unspecified), inactive: 126%; as for `CCOC(=O)c1c(Nc2ccccc2)nnc(-c2ccccc2)c1-c1ccccc1`, active: 6%. As for `O=C(Cn1c(=O)oc2ccccc21)NCc1ccc(Cl)cc1`, the figure is inactive: 95%.

As for `CCN(c1ccccc1)S(=O)(=O)c1cc(C(=O)Nc2ccc(Br)cc2)ccc1F`, the survival is active: 6%. For the compound `CCC(Cc1ccccc1)NC(=O)c1csc2c1CCCCC2` (stereo unspecified), the survival is inactive: 125%. For `COc1cccc(Cn2c(SCc3ccc(C(=O)N4CCC(C)CC4)cc3)nc3ccncc32)c1`, the survival was inactive: 120%. As for `CCOc1ccc(N=C(c2ccccc2)N2CCOCC2)cc1`, the figure is inactive: 69%; as for `COc1ccc2c(C)cc(SCC(=O)Nc3nsc(-c4ccc(C(C)(C)C)cc4)n3)nc2c1`, inactive: 56%.

Consider `COc1cc(NC(=O)CCCSc2nc(-c3ccco3)cc(C(F)(F)F)n2)cc(OC)c1OC`, for which the survival is active: 38%. As to `Cc1cc(-c2nc3ncccc3o2)ccc1NC(=O)COc1ccc(C(C)(C)C)cc1`, the survival was active: 32%. Consider `CCc1ccc(NC(=O)CSc2nnc(-c3nonc3NC(C)=O)n2-c2ccccc2)cc1`, for which the survival is active: 43%. As for `Cc1c2cnn(-c3ccccc3)c(=O)c2c(C)n1CC(=O)NCc1ccc(Cl)cc1`, the figure is inactive: 87%.
